The chains are these.
B1: OR4K15 (parent)
chain: GUUAACGGUCAUAGGCCAUGGAAACUAGGAGCACCAUUUCGCUGCCAGUGAAGAAAUGAACAAAGAAAAUCUGGGCCAGGCAGGCAUCAAAAGAAAUAGUCUUGCGCUCAACCAGAAAGUCUGUAAUCAUUUUAAGGGUA

Read counts are not given, so values of variants with three or more changes are uncertain.

Variants of B1 are the subject of the data set. As to the kind of experiment: self-cleavage, relative activity (ratio to wild type); higher = more cleavage; in vitro, sequencing; the parent is a self-cleaving ribozyme.
Take A22G A51G C81U: the self-cleavage is 0.55. A22G U49C U57A A78U A91G: the self-cleavage is 0.11.

For the variant A22G A54G A63U A86G U87C, the self-cleavage stood at 0.32. Take A23G A52G A68G G115A: the self-cleavage amounted to 0.12.

In the case of A22G A54C A86G U102C, the self-cleavage was 0.92.

On to A22G A36G U39C A63G, for which the self-cleavage stood at 1.48. Then A22G A92G U122C, with 1.1; and A22G A82G U132C G137A, with 0.73; and A22G U38C A62U A68G U132C, with 1.05.

As for A22G A52G A62U, the self-cleavage was 1.15. The same measure for A22U G44A A52G A54G A68G U122C A126G A140U: 0.48; for A23G A36G A52G G137U: 1.26; for A22G A54G U87C A117G A126G: 1.16. As for A23G A24G U122C, the self-cleavage came to 0.6. As for A22G A86G A111U, the self-cleavage came to 0. Then A23G A66G U122A, with 1.06; and A22G A64G A91G U103C A114U U130C, with 0.

Turning to A23G A62C U103A, the self-cleavage stood at 0.58. Take A22G A60G C88U A96G: the self-cleavage was determined as 0.85. The same measure for A22G A62G U102C U139C: 0.87. Then A23G A51U A63G, with 0.82. As for A22G A86G A118U, the self-cleavage came out at 0.29. For A22G A51G A55C, the self-cleavage is 0.69. Then A22G G104A A110G, with 0.01; and A23G A59G A92U A125G, with 0.49; and A22G U39A U49C A66G U100A, with 0.46. The same measure for A22G U43C A56G A68G A125G: 0.32; for A23G A78G U131G: 0.16; for A22G A82G U103C: 1.57. Take A23G A68G U72A: the self-cleavage was determined as 0.47.

For the variant A23G A36U A60G, the self-cleavage came out at 0.64. The same measure for A22G A78G U122C: 0.34; for A22G A47G A78U A111G: 0.05; for A22U A23U U39G A114U: 0.16. Regarding A22G U26C A62G A64G, the self-cleavage amounted to 0.4.

As for A22G G29U U38C G48U U49G A56G, the self-cleavage was 0.88.

Turning to A22G U87C A94G U102C, the self-cleavage was 1.3. Then A22G A54U A95C U103A U108C U122C, with 0.03; and A22G A82U U131C, with 0.18. As for A22U U72A U131C, the self-cleavage was 0.27. The same measure for A23C A60G U97C U103A: 1.25; for A22G A52G A56C A68G A78G: 0.48.

In the case of A22G A95G C107U, the self-cleavage stood at 0.03. The same measure for A22G U39C A110G: 0.13; for A23G A60C A92G U100A: 0.48; for A23G A30U A51G A67G A90G: 0.18. The same measure for A23G A33G A47G A60G C77A: 0.65. Then A23C A68G A78G A89C A96G U139A, with 0.1; and A22U U70C U72C A118G, with 0.14; and A22G G28C A30G A91G A125G, with 0.26. Take A22G A62U A67G C121G: the self-cleavage was 2.44.

For A22G U38A C46U A62G, the self-cleavage was found to be 1.49. Turning to A22U U102C U122A, the self-cleavage stood at 1.34.

As to A23G A69G A86G, the self-cleavage worked out at 1.74. Then A22G U57C U120C, with 0.45. Then A22G U37C G48A A117G, with 1.81; and A23G A36U U38C A68G A111G, with 0.

Regarding A22G U39C U103C, the self-cleavage was 0.67. Then A23G A47U A60G, with 0.8. The same measure for A22G A56G U130C: 1.66; for A23G A24G C45U U57C: 0.42; for A23G A60G G80U U102C: 0.23.

Turning to A22G A52G A55G, the self-cleavage is 1.21. Then A23G A51G A55G A60G A111G, with 0.05.

In the case of A23G A52G U103A U108C U132C, the self-cleavage stood at 0.03.

As to A22U U43C A82G, the self-cleavage was found to be 0.23.

In the case of A22U A30G A54G A56G A95G, the self-cleavage worked out at 0.58. Then A23G A33G A82G U127G, with 0.26; and A22G A47U A66C A78G, with 0.23. Consider A22G U37C A114U, for which the self-cleavage turned out to be 0.09.

For the variant A22G A47G A55G A56G, the self-cleavage was 0. Consider A22G U57C U102C, for which the self-cleavage turned out to be 2.63. Take A23G A33G A59U G74U: the self-cleavage worked out at 0.17. The same measure for A23G A62G U139A: 1.35; for A22G A62G U132C: 1.55.

In the case of A22G A66G A67G A90G A125G, the self-cleavage amounted to 0.14. As for A23G A55G U124C, the self-cleavage was 1.19. The same measure for A22G A94G U102A: 1.59. Regarding A22G A52G A59G A82G, the self-cleavage amounted to 0.6. Then A22U A52G A125G, with 0.46; and A23G A36G A78U, with 0.59; and A23G A60G U70A, with 1.22.

For A22G A54G U72C U139A, the self-cleavage amounted to 0.28. Take A23G A56G U87C A116G U124C U127C: the self-cleavage worked out at 0.14. Then A22G U49C A56G A82G, with 0.23; and A22G A98G A135G, with 0.26. The same measure for A22G A64G A129G: 1.7; for A22U G74A A96G U102C C107G U127A A129G: 0. The same measure for A22G A62G A67G U122C: 0.76; for A23G A66G A114G: 0.53.

Regarding A22U A23G A63G A111G A140G, the self-cleavage amounted to 0.16. Consider A22G A78U A134G, for which the self-cleavage is 0.19. Then A22G A64G A117G U132C A140G, with 0.71; and A22G A36U U108C A110C, with 0; and A22G U43A A69U G106A A111U, with 0. Regarding A22G A63G U122C, the self-cleavage was 1.23.

A22G U70C A90G A98G: the self-cleavage was found to be 0.19. Then A22G A52G A94G, with 1.97.

For the variant A22G A89C U122C, the self-cleavage was 0.88. The same measure for A22G A51G A94G U108C: 0.05; for A23G A69G A82G A92G U120C: 0.29; for A22G A59G G99A A126G: 0.04. The same measure for A22G G41A A59U A82G U108C U122C G136A: 0. A22G A78G A94G: the self-cleavage amounted to 0.21. The same measure for A23G A62G A68G: 0.64. Then A22G A60G A94G A111G, with 0.11; and A23G A47G A82U A89G A116G A129U, with 0.02. The same measure for A23G A52G A54G U87C A94U U122A: 0.39; for A23G A24G A118G A126G U131C: 0.32; for A23G A54G A62G U127C: 1.51. With A22U A78G U122C, the self-cleavage was 0.19. Then A23C U49C U122C A126G, with 0.64; and A22U A33G A60G A63U A69C U70C, with 0.97; and A22G U38C A62U A82U A118G, with 0.11. The same measure for A23G A82U A91G A117G U120A: 0.09. The same measure for A23G A63G A64G A68U A114G: 0.76; for A22G U39C C107G: 0.05; for A23G A51G U87C U120C: 0.86.

As to A22U A55G A92G A111U, the self-cleavage is 0.13. Then A22G A54G A94C U130C, with 0.38; and A22G G31A A51G, with 1.89; and A22G U57C A114G, with 0.2. Then A23G A33U U70C U97A A110G U130A, with 0.05.

A22G U37A U43C: the self-cleavage is 1.7.

For the variant A23C U39C A47G, the self-cleavage is 1.39.

For A23G A64G A78G A90G A91G, the self-cleavage worked out at 0.12.

Regarding A23G A24G A89G A94G A114G A126G, the self-cleavage worked out at 0.23. Then A23G A30G A33G U102C, with 1.06; and A23G A52U A89G, with 1.2.

As for A23G A47G A86G, the self-cleavage came to 2.13. Then A22G U39C A90G, with 0.3; and A23G A63G U139C A140G, with 1.09; and A22G U122C A126G, with 1.02. Then A22G U49C A98G, with 0.22; and A22G G50A U132C, with 1.92; and A22G C35U A91G, with 0.9. The same measure for A23G A82G U127A: 1.09.

Regarding A23G A60G A78U, the self-cleavage was determined as 0.4. Then A22G A110G A118G, with 0.14; and A22G A89G A94G, with 1.02. The same measure for A22U U49A A52G A59G: 0.72; for A23G A69G U127C: 0.43; for A22G A67G C128A: 0.86. Then A23G A30G A67G U124C, with 0.89.

In the case of A22G U43C A91G, the self-cleavage stood at 0.73. Then A22G U38C U130C, with 0.82. The same measure for A22G U57C A62G: 0.83; for A23G A30G A69C: 1.05. Then A22G U43C U57C A82G A110U U122A A135G, with 0.05; and A22G G44A U57C, with 1.35. On to A22G A59U U131C, for which the self-cleavage came to 1.09. The same measure for A23G A36G G123A: 1.2. As for A23C A59U U87A U102C, the self-cleavage was found to be 1.55. The same measure for A22G A59G G83U: 0.54. Then A22G A51G U57C A68G U72A, with 0.38; and A23G A63G U102C U131C, with 1.99. The same measure for A22G U43C U120A: 1.25; for A23G A62G U103C: 0.5. In the case of A23G A89G A126U, the self-cleavage is 0.56.

As for A23G A59G A118G U132C, the self-cleavage is 1.26. Then A22G A62G A90U, with 1.45. As to A23G A27G A125G, the self-cleavage was 0.55. The same measure for A22G U26C A52G U108A U130C: 0.04. The same measure for A22G A52G A68G A92G: 1.04. As to A22U A86U A89G, the self-cleavage came to 2.13. Then A22G A51G A56G A59U A60G, with 1.33; and A22U A69G U97A A116G, with 0.33.

For the origin of these results see the RNAGym collection of RNA variant scans (doi:10.7554/elife.90254).
